Hit rate of the full screen: of about 360,000 compounds, about 7,500 (2.1%) were called active. Inconclusive means that the source gave no clear call. Such entries were picked first, then a sample of the others. Calls follow the shape of the dose curve; as a rule, active = well fitted cell-killing curve with a large enough effect; inconclusive = small, poorly fitted or top-dose-only effect, or effect the other way, or another doubt; inactive = no such curve, though single readings can be large or run the other way. Potencies of inconclusive entries are left out as doubtful fits.
Experiment: qHTS for induction of synthetic lethality in tumor cells producing 2HG: qHTS for the HT-1080-IDH1KD cell line;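 as to activity, negative = toxicity: 0% = DMSO wells and -100% = cell-free medium wells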
Conditions: HT-1080 IDH1 knockdown viability, ATP luminescence, 48 h; activity, negative = toxicity: at 46.1 µM (top of the series) unless noted
Procedure, shortened: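 Using the IDH1-knockdown HT-1080 line run in the same batch and compound series as the NT line, viability after 48 h at 37 °C was determined by CellTiter-Glo luminescence and expressed as % activity.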
Potency is read from the fitted curve at half-maximal effect; tags tell the direction and shape of the fitted curve.

Row | Structure (SMILES) | activity, negative = toxicity | Potency
1 | C[C@H]1CN([C@@H](C)CO)C(=O)c2cc(-c3ccccc3F)cnc2O[C@@H]1CN(C)C(=O)NC1CCCCC1 | inactive: -3.12% | –
2 | OC(COc1ccc2cc(Br)ccc2c1)CN1CCCC1 (centres undefined) | – | active: 12.6 µM
3 | COc1cccc(/C=C2\SC(=O)N(CCC(=O)NNC(=O)c3ccccc3Cl)C2=O)c1 | – | inconclusive [cytotoxic, partial curve, poor fit]
4 | CC(=O)Oc1ccc(-c2csc(Nc3cccc(C)n3)n2)cc1 | – | inconclusive [cytotoxic, single point]
5 | CCCC(c1nnnn1Cc1ccco1)N1CCN(c2ccccc2)CC1 (centres undefined) | inactive: 6.76% | –
6 | CC1=C(C(=O)OCC2CCCO2)C(c2ccccc2)NC(=O)N1 (centres undefined) | – | inconclusive [rising, single point]
7 | CCC(C)c1ccc(NC(=O)c2cccnc2)cc1 (centres undefined) | – | inconclusive [cytotoxic, single point]
8 | COC(=O)c1ccc2nc(-c3ccco3)c(Cc3cccc(Cl)c3)n2c1 | inactive: 12% | –
9 | Cc1cccc2c1NC(=O)C2(c1ccc(O)cc1)c1ccc(O)cc1 | – | active: 0.0082 µM
10 | O=C(CCCl)Nc1nc2c(s1)CCc1ccccc1-2 | – | active: 9.2 µM
11 | OC(CNC1Cc2ccccc2C1)c1ccccc1 (centres undefined) | inactive: -6.61% | –
12 | COc1c(C)cc(C(O)c2ncc(-c3ccccc3F)[nH]2)cc1C (centres undefined) | – | inconclusive [cytotoxic, partial curve]
13 | O=C(NNC1CC(=O)N(c2ccc(Cl)cc2)C1=O)c1ccco1 (centres undefined) | inactive: 6.3% | –
14 | COCCn1c(-c2cccs2)nc2nc3ccccc3nc21 | inactive: -4.6% | –
15 | COc1ccc(Cc2nnc(SCC(=O)Nc3ccccc3C)n(N)c2=O)cc1 | – | inconclusive [cytotoxic, single point]
16 | CC(C)(C)[C@H](N)C(=O)N[C@H]1CCC2C3CC=C4C[C@@H](O)CC[C@]4(C)C3CC[C@@]21C (some centres undefined) | – | inconclusive [cytotoxic, single point]
17 | COC(=O)[C@]12CCCCC=C1N(Cc1ccc(Cl)cc1Cl)C(=O)[C@H](CC(=O)NCCc1ccccc1OC)C2 | – | inconclusive [cytotoxic, single point]
18 | COc1cc(/C=N/NC(=O)c2c(-c3c(Cl)cccc3Cl)noc2C)ccc1OCC(N)=O | inactive: -2.77% | –
19 | CCCc1ccc(-c2cc(C(=O)N/N=C/c3ccc([N+](=O)[O-])o3)c3ccccc3n2)cc1 | – | active: 6.51 µM
20 | CCOC(=O)c1c(N)sc(C(O)(C(F)(F)F)C(F)(F)F)c1-c1ccc(Cl)cc1 | – | inconclusive [cytotoxic, single point]
21 | OC(COc1ccc(CNCCc2ccc(C(F)(F)F)cc2)cc1)CN1CCCCC1 (centres undefined) | – | active: 23.1 µM
22 | CCCCNC(=S)N(C)/N=C/c1ccc(OCC(=O)Nc2c(C)cc(C)cc2C)c(OC)c1 | – | inconclusive [cytotoxic, single point]
23 | Cc1cc(NC(=O)CN2CCOCC2)n(-c2nc3ccccc3s2)n1 | inactive: -10.5% | –

Row | Structure (SMILES) | activity, negative = toxicity | Potency
24 | O=C(CSc1nc2ccccc2c(=O)n1Cc1ccco1)c1ccccc1 | – | inconclusive [cytotoxic, single point]
25 | CCN1CCCC1CNCc1ccccc1OCc1ccc(F)cc1 (centres undefined) | – | inconclusive [cytotoxic, single point]
26 | Cc1ccc2nc(N3C(=O)C(O)=C(C(=O)c4ccco4)C3c3cccs3)sc2c1 (centres undefined) | – | inconclusive [cytotoxic, single point]
27 | COCC(=O)N1CCC(Oc2ccc(C(=O)NCc3cc(C)n(C)n3)cc2)CC1 | inactive: -0.278% | –
28 | CCOC(=O)c1ccc(-n2c(=O)[nH]c3ccccc3c2=O)cc1 | inactive: 11.2% | –
29 | O=C(Nc1ccc([N+](=O)[O-])cc1)c1ccc(Cn2cc([N+](=O)[O-])cn2)cc1 | – | inconclusive [cytotoxic, full curve, poor fit]
30 | Cc1cccnc1NCc1ccc(O)c2ncccc12 | – | inconclusive [cytotoxic, single point]
31 | CC(C)CCNC(=O)c1cc(-c2ccco2)nc2ccccc12 | inactive: -1.79% | –
32 | O=C(N/N=C/c1ccc([N+](=O)[O-])s1)c1cccnc1 | – | inconclusive [cytotoxic, single point]
33 | NNC(=O)[C@H](Cc1ccccc1)NC(=O)Nc1ccc2c(c1)OCCO2 | inactive: 4.31% | –
34 | CC(C)C(=O)Nc1cc(S(=O)(=O)Nc2ccc(Cl)cc2)ccc1Cl | – | inconclusive [cytotoxic, single point]
35 | CCCCc1c(-c2ccccc2OC)ncn1CCc1cccc(OC)c1 | – | active: 16.4 µM
36 | O=C(CS(=O)CC(=O)N(c1cccc(F)c1)C(C(=O)NC1CCCCC1)c1ccco1)Nc1ccc(F)cc1 (centres undefined) | – | inconclusive [cytotoxic, single point]
37 | C=CCOc1ccc(CN(C)c2ccc(S(=O)(=O)N3CCN(C)CC3)cc2[N+](=O)[O-])cc1 | inactive: -10% | –
38 | Cc1cnc(NC(=O)CSc2nnc(Cc3ccccc3)o2)s1 | – | active: 4.47 µM
39 | CCCNC(=O)N1CCC(C(=O)c2cccc(F)c2)CC1 | inactive: 12.4% | –
40 | CC1CC/C(=C\c2ccc3c(c2)OCO3)C(=O)/C1=C/c1ccc2c(c1)OCO2 (centres undefined) | – | inconclusive [cytotoxic, single point]
41 | O=C(Nc1ccc(-c2cn3ccccc3n2)cc1)c1cccs1 | – | inconclusive [cytotoxic, single point]
42 | O=C(CCn1c(=O)[nH]c2ccccc2c1=O)N1CCN(c2ccc(Cl)cc2)CC1 | inactive: 3.58% | –
43 | O=C1CCCN1CCC1CCN(C2CC(=O)N(Cc3ccc(N4CCCC4=O)cc3)C2=O)CC1 (centres undefined) | – | inconclusive [cytotoxic, single point]
44 | O=C(N/N=C/c1cccc([N+](=O)[O-])c1O)c1cccs1 | – | inconclusive [cytotoxic, single point]
45 | Oc1ccc2c(c1)oc1cc(O)ccc12 | – | inconclusive [cytotoxic, single point]
46 | Cc1ccc(-c2nnc(N3CCN(C(=O)CSc4ncn[nH]4)CC3)c3ccccc23)cc1 | – | inconclusive [cytotoxic, single point]

Row | Structure (SMILES) | activity, negative = toxicity | Potency
47 | CCOC(=O)c1c(NC(=O)C(Sc2ccccc2)c2ccccc2)sc(C(=O)N(C)C)c1C (centres undefined) | – | inconclusive [cytotoxic, single point]
48 | CC1(C)CC(N2CCN(Cc3ccccc3)CC2)=CC(=[N+]2CCCCC2)C1 | – | inconclusive [cytotoxic, full curve]
49 | CCOC(=O)C1=C(C)NC(C)=C(C(=O)OCCNC(=O)c2cccnc2)C1c1cccc([N+](=O)[O-])c1 (centres undefined) | inactive: -14.4% | –
50 | CCC[C@@H](CNC)NC[C@H](Cc1ccccc1)NCCCCc1ccccc1 | – | inconclusive [cytotoxic, single point]
51 | CC(C)CCSc1cc(NCCO)c([N+](=O)[O-])c2nonc12 | – | active: 18.4 µM
52 | CC(C)COC(=O)N(C)c1ccc(C(O)(C(F)(F)F)C(F)(F)F)cc1 | – | inconclusive [cytotoxic, single point]
53 | O=C1NC[C@H](Cc2ccccc2)N(C[C@@H]2CCCN2C[C@H](Cc2ccccc2)N2C[C@H](Cc3ccccc3)N(CC3CCCCC3)C(=O)C2=O)C1=O | – | inconclusive [cytotoxic, single point]
54 | Cc1cccc(C(=O)Nc2nc(C)c(C(=O)Nc3ccc4c(c3)CCC4)s2)c1 | – | inconclusive [cytotoxic, single point]
55 | O=C1Nc2ccccc2N=C(c2ccccc2)C1N(C(=O)c1ccnc2ccccc12)c1ccccc1 (centres undefined) | – | inconclusive [cytotoxic, single point]
56 | CC(CCc1ccccc1)NC(=O)C1CCCN(C(=O)c2cc3sccc3n2C)C1 (centres undefined) | – | inconclusive [cytotoxic, single point]
57 | CCN1CCN(c2cc(C)c3cc(NC(=S)N4CCCCC4)ccc3n2)CC1 | – | inconclusive [cytotoxic, single point]
58 | Cc1ccc(S(=O)(=O)N2CCC(C(=O)Nc3ccc(N4CCOCC4)cc3)CC2)cc1C | inactive: 10.4% | –
59 | COc1ccc(NC(=O)COc2ccc(-c3nn(C)c(=O)c4ccccc34)cc2)cc1 | – | inconclusive [cytotoxic, single point]
60 | O=C(CSc1nnc(CNC(=O)c2c(F)cccc2F)o1)c1ccc(Cl)cc1 | inactive: 3.26% | –
61 | CCCn1c(/C=N/Nc2nc3ccccc3[nH]2)nc2ccccc21 | – | inconclusive [cytotoxic, single point]
62 | Cc1nn(-c2ccccc2)c2c1C1(C(=O)N3c4c(cccc41)C(C)CC3(C)C)C(C#N)=C(N)O2 (centres undefined) | – | inconclusive [cytotoxic, single point]
63 | O=C(Nc1cccc([N+](=O)[O-])c1)c1ccc([N+](=O)[O-])o1 | – | inconclusive [cytotoxic, single point]
64 | N=c1ccn(CC(=O)c2ccc(-c3ccccc3)cc2)cc1 | – | active: 16.4 µM
65 | C/C(=N\Nc1ccc2nncn2n1)c1ccccn1 | – | inconclusive [cytotoxic, full curve, poor fit]
66 | COc1ccc(NC(c2ccccc2)c2ccncc2)cc1 (centres undefined) | – | inconclusive [cytotoxic, single point]
67 | Nc1nccc(/C=C/c2c(Cl)cccc2Cl)n1 | – | inconclusive [cytotoxic, single point]
68 | COc1ccc(C[C@H]2CN3C(=NC[C@@H]3Cc3ccccc3)N2CCNC(=O)CCC2CCCCC2)cc1 | – | inconclusive [cytotoxic, single point]
69 | Cn1c(=O)[nH]c(=O)c2c1nc([N+](=O)[O-])n2Cc1ccccc1 | – | active: 3.26 µM

From PubChem BioAssay AID686971 (National Center for Advancing Translational Sciences (NCATS), 2013)
